Tests used:
[1] = tested on: OVCAR3 (ovarian cancer); assay: In vitro cytotoxicity (MTS), OVCAR3; format: cell-based, human; settings: Table 14; LP = lacked potency
Protocol: The effects of anti-Notch3 ADCs were assessed on 1) cell lines endogenously expressing Notch3 protein: HCC2429 (lung cancer), OVCAR3 (ovarian cancer) and MDA-MB-468 (breast cancer), 2) cell lines engineered to over-express full length human Notch3 protein: MDA-MB-468/hNotch3 and U2OS/hNotch3, and 3) a negative control cell line (SW900) using an MTS cellular viability indicator (Promega, Madison, Wis.). These cell lines were cultured with increasing concentrations of anti-Notch3 ADCs comprising rat-human chimeric anti-Notch3 antibodies, ch28 and ch75, and humanized anti-Notch3 antibodies, hu28 and hu75, conjugated to various linker-payload combinations of the present invention. As a specificity control for the anti-Notch3-ADCs, non-targeted control-ADCs (huNeg8.8-ADCs or ch2H6-ADCs) were also tested on the same cell lines. After four days, viability of each culture was assessed. IC50 values were calculated by logistic non-linear regression, model #203 with XL fit v4.2 (IDBS, Guildford, Surry, UK) and presented as ng Ab/mL. The drug antibody ratio (DAR) is also provided.
This process generated the anti-Notch3 cysteine mutant ADCs: hu28-(L443C)-vc0101 and hu28-(L443C/κK183C)-vc0101. The activity of the anti-Notch3 cysteine mutant ADCs were assessed on cell lines endogenously expressing Notch3 protein: HCC2429 (lung cancer) and OVCAR3 (ovarian cancer) using an MTS cellular viability indicator as described in previous Examples.

[2] = molecular target: T1, OVCAR3 (Homo sapiens, UniProt Q9UM47); assay: Cytotoxicity (MTS) after control or Notch3 siRNA, OVCAR3; format: cell-based; settings: 96 hours
T1 construct: Notch3 endogenously expressing cells MDA-MB-468, HCC2429 and OVCAR3; endogenous in cells; host or cells: OVCAR3
T1 sequence (Q9UM47 40-2321): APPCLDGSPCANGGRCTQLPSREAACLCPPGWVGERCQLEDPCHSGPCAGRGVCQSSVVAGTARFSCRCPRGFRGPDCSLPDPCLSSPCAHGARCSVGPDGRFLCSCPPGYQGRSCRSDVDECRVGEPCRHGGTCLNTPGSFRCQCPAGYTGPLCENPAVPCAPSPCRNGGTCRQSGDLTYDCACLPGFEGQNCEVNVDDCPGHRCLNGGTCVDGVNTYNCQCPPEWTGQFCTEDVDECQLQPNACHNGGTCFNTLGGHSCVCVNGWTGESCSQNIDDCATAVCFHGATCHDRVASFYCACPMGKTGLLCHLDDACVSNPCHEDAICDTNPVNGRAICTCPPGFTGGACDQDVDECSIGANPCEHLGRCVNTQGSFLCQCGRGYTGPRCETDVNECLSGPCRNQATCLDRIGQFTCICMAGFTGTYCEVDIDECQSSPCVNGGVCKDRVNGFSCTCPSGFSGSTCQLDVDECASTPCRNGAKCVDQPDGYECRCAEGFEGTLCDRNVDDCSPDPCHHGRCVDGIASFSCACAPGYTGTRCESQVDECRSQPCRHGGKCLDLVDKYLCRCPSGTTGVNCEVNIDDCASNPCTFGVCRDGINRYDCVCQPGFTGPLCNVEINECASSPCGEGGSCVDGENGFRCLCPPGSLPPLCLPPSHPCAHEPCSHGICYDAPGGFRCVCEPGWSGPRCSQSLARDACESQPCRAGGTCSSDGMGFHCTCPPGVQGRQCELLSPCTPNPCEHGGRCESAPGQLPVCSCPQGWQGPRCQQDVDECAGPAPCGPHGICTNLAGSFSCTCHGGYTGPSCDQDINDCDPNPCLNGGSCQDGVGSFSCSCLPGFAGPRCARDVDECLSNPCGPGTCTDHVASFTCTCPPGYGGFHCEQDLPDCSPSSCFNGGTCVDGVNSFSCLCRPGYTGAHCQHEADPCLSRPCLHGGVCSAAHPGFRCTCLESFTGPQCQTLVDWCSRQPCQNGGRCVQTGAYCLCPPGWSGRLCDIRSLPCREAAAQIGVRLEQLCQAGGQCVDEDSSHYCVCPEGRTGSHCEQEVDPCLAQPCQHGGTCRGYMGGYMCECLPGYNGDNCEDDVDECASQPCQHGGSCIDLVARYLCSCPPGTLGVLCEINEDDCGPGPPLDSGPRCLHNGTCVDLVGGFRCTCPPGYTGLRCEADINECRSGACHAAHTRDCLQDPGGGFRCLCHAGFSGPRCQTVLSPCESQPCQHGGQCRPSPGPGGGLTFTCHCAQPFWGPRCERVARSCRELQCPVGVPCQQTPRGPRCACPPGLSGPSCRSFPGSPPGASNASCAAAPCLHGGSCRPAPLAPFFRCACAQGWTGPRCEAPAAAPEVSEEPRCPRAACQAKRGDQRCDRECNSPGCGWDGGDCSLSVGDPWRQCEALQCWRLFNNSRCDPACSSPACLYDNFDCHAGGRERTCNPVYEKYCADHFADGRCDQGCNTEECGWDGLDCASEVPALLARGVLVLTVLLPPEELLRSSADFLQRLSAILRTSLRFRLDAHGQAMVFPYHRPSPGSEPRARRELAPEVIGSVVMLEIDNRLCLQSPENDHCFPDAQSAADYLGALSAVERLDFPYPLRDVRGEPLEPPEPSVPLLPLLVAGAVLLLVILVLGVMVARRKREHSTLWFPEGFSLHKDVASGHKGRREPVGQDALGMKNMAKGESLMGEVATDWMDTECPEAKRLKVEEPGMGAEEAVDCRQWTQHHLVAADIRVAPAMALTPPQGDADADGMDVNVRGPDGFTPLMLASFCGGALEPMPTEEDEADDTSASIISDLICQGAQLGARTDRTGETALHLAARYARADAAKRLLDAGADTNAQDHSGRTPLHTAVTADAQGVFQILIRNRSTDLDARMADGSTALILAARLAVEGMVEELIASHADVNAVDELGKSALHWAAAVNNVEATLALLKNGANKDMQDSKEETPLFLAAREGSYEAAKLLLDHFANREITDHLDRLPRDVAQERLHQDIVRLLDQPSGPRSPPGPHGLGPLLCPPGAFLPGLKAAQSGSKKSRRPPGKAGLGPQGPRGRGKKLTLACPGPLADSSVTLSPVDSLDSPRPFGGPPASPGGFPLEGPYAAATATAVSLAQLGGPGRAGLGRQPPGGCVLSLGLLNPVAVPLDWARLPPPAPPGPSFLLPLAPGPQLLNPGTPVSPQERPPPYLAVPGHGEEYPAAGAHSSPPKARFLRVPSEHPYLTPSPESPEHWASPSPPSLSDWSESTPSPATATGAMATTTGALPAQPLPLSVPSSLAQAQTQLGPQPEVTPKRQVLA
Protocol: (§1) Notch3 knockdown with siRNAs was used to confirm that the in vitro cytotoxicity of anti-Notch3 ADCs was dependent on the expression of the Notch3 protein. siRNA transfections were generated using ON-TARGET plus SMART pool human Notch3 (L-011093-00), ON-TARGET plus Control Non-Targeting pool (D-001810-10) (Thermo Scientific Dharmacon) and Lipofectamine RNAiMAX Reagent (Invitrogen). Two to 2.5×10^6 cells of HCC2429, OVCAR3 and MDA-MB-468/hNotch3 cells were plated in 10 cm dishes in growth medium without antibiotics the day before transfection. The next day fresh medium without antibiotics was added. The siRNAs and the Lipofectamine RNAiMAX were diluted in OPTI-MEM media and used as per the manufacturer's specifications. Each of the cell lines was transfected with control and Notch3 siRNAs. The cells were incubated with the transfection mixture for 24 hours in a humidified, 37° C., 5% CO2 incubator. After 24 hours, cells were trypsinized and plated for assessment using MTS cellular viability indicator (Promega, Madison, Wis.).
(§2) Depending on the cell line, cells were then seeded at a density of 2,500 to 5,000 cells per well 24 hours before treatment. Cells were treated with 3-fold serially diluted humanized anti-Notch3 ADCs in triplicates at 10 concentrations (range 0-30 μg Ab/ml). […] For experiments with 2 individual repeats, average IC50 values were calculated along with standard error of the mean (S.E.M.). Western blot analysis on extracts prepared from control and Notch3 siRNA-treated cells was performed to confirm that Notch3 knockdown occurred for up to 144 hours (data not shown). Cell lines that expressed Notch3 (herein termed control siRNA) or had reduced Notch3 expression after siRNA knockdown (herein termed Notch3 siRNA) were cultured with increasing concentrations of humanized anti Notch3 ADCs. As a specificity control for the anti-Notch3 ADCs, non-targeted control-ADCs (huNeg8.8-ADCs) were also tested on the same cell lines. After four days, viability of each culture was assessed. IC50 values were calculated by logistic non-linear regression, model #203 with XL fit v4.2 (IDBS, Guildford, Surry, UK) and presented as ng Ab/mL. The drug antibody ratio (DAR) is also provided.

[3] = molecular target: T2, MDA-MB-468/hNotch3 (Homo sapiens, UniProt Q9UM47); assay: Cytotoxicity (MTS) after control or Notch3 siRNA, MDA-MB-468/hNotch3; format: cell-based; settings: 96 hours, LP = lacked potency
T2 construct: cell lines engineered to over-express full length human Notch3 protein: MDA-MB-468/hNotch3 and U2OS/hNotch3; expressed in transfected cells; host or cells: MDA-MB-468
T2 sequence (Q9UM47 40-2321): as above
Protocol: as §1
as §2, with “As a specificity control for the anti-Notch3 ADCs, non-targeted control-ADCs (huNeg8.8-ADCs) were also tested on the same cell lines.” left out, “The drug antibody ratio (DAR) is also provided.” left out

[4] = tested on: HCC2429 lung xenografts; assay: HCC2429 lung xenograft model (ADCs); format: in vivo, mouse
Protocol: Similar in vivo experiments were performed with the HCC2429 lung cancer cell line as described above. To generate xenografts, nude (Nu/Nu) female mice were implanted subcutaneously with 3.5×10^6 HCC2429 cells in 50% Matrigel (BD Biosciences).
The HCC2429 lung model was also dosed intravenously Q4d×4 with PBS vehicle, rat-human chimeric anti-Notch3 ADCs and control huNeg-8.8 ADCs, at a dose of 5 mg/kg as provided in FIG. 16A.

B1: hu28-vc0101: hu28 conjugated to vc0101 linker-payload (conjugate)
heavy: EVQLVESGGGLVQPGGSLRLSCAASGFTFRDYGMTWVRQAPGKGLEWVAYISSGSNYIYYAEAVKGRFTISRDNAKNSLYLQMNSLRAEDTAVYYCARRGPFVLDAWGQGTLVTVSS[letters of human IgG1 constant region omitted]
light: DIQMTQSPSSLSASVGDRVTITCKASQSINRYLHWYQQKPGKAPKLLIYNANGLQTGVPSRFSGSGSGTDFTLTISSLQPEDFATYYCLQHNTWPDTFGGGTKVEIKRTVAAPSVFIFPPSDEQLKSGTASVVCLLNNFYPREAKVQWKVDNALQSGNSQESVTEQDSKDSTYSLSSTLTLSKADYEKHKVYACEVTHQGLSSPVTKSFNRGEC
- IC50 (ng Ab/mL), OVCAR3 [1]: 306 ng Ab/mL
- IC50 (ng Ab/mL) ± S.E.M., OVCAR3 Control siRNA ([2]; Control siRNA): 684 ± 183 ng Ab/mL
- IC50 (ng Ab/mL) ± S.E.M., OVCAR3 Notch3 siRNA ([2]; Notch3 siRNA knockdown): 1994 ± 262 ng Ab/mL
- IC50 (ng Ab/mL) ± S.E.M., MDA-MB 468/hNotch3 Control siRNA ([3]; Control siRNA): 3.0 ng Ab/mL
- IC50 (ng Ab/mL) ± S.E.M., MDA-MB 468/hNotch3 Notch3 siRNA ([3]; Notch3 siRNA knockdown): 3340 ng Ab/mL
- tumor volume ([4]; Day 1, 0.3 mg/kg iv Q4dx4): 528 mm^3
- tumor volume ([4]; Day 1, 1 mg/kg iv Q4dx4): 532 mm^3
- tumor volume ([4]; Day 1, 3 mg/kg iv Q4dx4): 548 mm^3
- tumor volume ([4]; Day 3, 0.3 mg/kg iv Q4dx4): 733 mm^3
- tumor volume ([4]; Day 3, 1 mg/kg iv Q4dx4): 757 mm^3
- tumor volume ([4]; Day 3, 3 mg/kg iv Q4dx4): 606 mm^3
- tumor volume ([4]; Day 6, 0.3 mg/kg iv Q4dx4): 1112 mm^3
- tumor volume ([4]; Day 6, 1 mg/kg iv Q4dx4): 1095 mm^3
- tumor volume ([4]; Day 6, 3 mg/kg iv Q4dx4): 723 mm^3
- tumor volume ([4]; Day 8, 0.3 mg/kg iv Q4dx4): 1617 mm^3
- tumor volume ([4]; Day 8, 1 mg/kg iv Q4dx4): 1324 mm^3
- tumor volume ([4]; Day 8, 3 mg/kg iv Q4dx4): 696 mm^3
- tumor volume ([4]; Day 10, 0.3 mg/kg iv Q4dx4): 2027 mm^3
- tumor volume ([4]; Day 10, 1 mg/kg iv Q4dx4): 1606 mm^3
- tumor volume ([4]; Day 10, 3 mg/kg iv Q4dx4): 620 mm^3
- tumor volume ([4]; Day 13, 0.3 mg/kg iv Q4dx4): 2642 mm^3
- tumor volume ([4]; Day 13, 1 mg/kg iv Q4dx4): 1717 mm^3
- tumor volume ([4]; Day 13, 3 mg/kg iv Q4dx4): 543 mm^3
- tumor volume ([4]; Day 15, 1 mg/kg iv Q4dx4): 1865 mm^3
- tumor volume ([4]; Day 15, 3 mg/kg iv Q4dx4): 512 mm^3
- tumor volume ([4]; Day 17, 1 mg/kg iv Q4dx4): 2228 mm^3
- tumor volume ([4]; Day 17, 3 mg/kg iv Q4dx4): 442 mm^3
- tumor volume ([4]; Day 20, 3 mg/kg iv Q4dx4): 428 mm^3
- tumor volume ([4]; Day 23, 3 mg/kg iv Q4dx4): 405 mm^3
- tumor volume ([4]; Day 27, 3 mg/kg iv Q4dx4): 422 mm^3
- tumor volume ([4]; Day 30, 3 mg/kg iv Q4dx4): 394 mm^3
- tumor volume ([4]; Day 34, 3 mg/kg iv Q4dx4): 505 mm^3
- tumor volume ([4]; Day 37, 3 mg/kg iv Q4dx4): 606 mm^3
- tumor volume ([4]; Day 41, 3 mg/kg iv Q4dx4): 750 mm^3
- tumor volume ([4]; Day 45, 3 mg/kg iv Q4dx4): 872 mm^3
- tumor volume ([4]; Day 49, 3 mg/kg iv Q4dx4): 558 mm^3
- tumor volume ([4]; Day 52, 3 mg/kg iv Q4dx4): 571 mm^3
- tumor volume ([4]; Day 56, 3 mg/kg iv Q4dx4): 704 mm^3
- tumor volume ([4]; Day -1, 0.3 mg/kg iv Q4dx4): 246 mm^3
- tumor volume ([4]; Day -1, 1 mg/kg iv Q4dx4): 246 mm^3
- tumor volume ([4]; Day -1, 3 mg/kg iv Q4dx4): 245 mm^3

— US9433687B2, “Anti-Notch3 antibodies and antibody-drug conjugates” (Pfizer Inc., priority 2012, dated 2016)
